# According to PubChem BioAssay AID504332 (National Center for Advancing Translational Sciences (NCATS), 2011):
# The whole screen tested about 350,000 compounds, of which about 31,000 (8.9%) were called active. The shares of active, inactive and inconclusive entries below differ from those in the screen. The call rests on the fitted dose curve; in most records, active means well fitted inhibition curve with a large enough effect; inconclusive means small, poorly fitted or top-dose-only effect; inactive means no such curve, though single readings can be large or run the other way. Potencies of inconclusive entries are doubtful fits and often do not repeat.
# Target: Histone-lysine N-methyltransferase EHMT2 (Homo sapiens) (UniProt Q96KQ7)
# UniProt Q96KQ7, sequence (Q96KQ7 whole entry, looked up): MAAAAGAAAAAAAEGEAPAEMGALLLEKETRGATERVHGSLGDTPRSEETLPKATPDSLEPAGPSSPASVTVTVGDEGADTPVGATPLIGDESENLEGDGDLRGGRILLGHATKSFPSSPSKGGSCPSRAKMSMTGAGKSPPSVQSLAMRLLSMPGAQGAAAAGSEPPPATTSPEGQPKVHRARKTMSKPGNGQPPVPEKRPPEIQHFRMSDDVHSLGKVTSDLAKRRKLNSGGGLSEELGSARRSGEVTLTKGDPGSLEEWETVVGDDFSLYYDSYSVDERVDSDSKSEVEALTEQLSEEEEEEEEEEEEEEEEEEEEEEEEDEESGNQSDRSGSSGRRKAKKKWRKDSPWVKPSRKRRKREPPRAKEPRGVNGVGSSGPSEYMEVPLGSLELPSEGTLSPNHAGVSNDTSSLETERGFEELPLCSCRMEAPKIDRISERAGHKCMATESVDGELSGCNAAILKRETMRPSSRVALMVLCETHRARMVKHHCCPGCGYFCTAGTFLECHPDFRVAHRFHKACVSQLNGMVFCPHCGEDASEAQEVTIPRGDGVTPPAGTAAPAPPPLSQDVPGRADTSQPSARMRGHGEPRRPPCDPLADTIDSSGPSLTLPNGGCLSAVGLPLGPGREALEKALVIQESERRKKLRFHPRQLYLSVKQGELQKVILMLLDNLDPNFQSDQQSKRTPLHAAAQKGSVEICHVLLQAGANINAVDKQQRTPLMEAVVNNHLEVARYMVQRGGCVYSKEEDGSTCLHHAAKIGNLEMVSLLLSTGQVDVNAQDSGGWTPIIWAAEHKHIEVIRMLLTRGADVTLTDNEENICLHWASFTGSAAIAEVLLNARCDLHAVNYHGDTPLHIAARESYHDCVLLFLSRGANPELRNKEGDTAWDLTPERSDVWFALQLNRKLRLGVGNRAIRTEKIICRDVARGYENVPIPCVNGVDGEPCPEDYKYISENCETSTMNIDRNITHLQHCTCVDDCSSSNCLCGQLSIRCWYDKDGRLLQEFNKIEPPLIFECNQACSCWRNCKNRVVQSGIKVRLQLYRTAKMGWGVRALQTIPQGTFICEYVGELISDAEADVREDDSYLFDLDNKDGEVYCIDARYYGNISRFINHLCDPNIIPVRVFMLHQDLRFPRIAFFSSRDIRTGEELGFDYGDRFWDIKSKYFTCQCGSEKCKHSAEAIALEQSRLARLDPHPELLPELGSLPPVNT
# Test: qHTS Assay for Inhibitors of Histone Lysine Methyltransferase G9a; further: nearly all actives have a fitted effect of over 75% in size
# Conditions: G9a H3K9 monomethylation, AlphaScreen, 2 h; activity, negative = inhibition: at 59 µM (top of the series) unless noted
# How it was run: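 Signal arises when biotinylated H3K9 peptide, once monomethylated, bridges streptavidin donor and antibody-captured acceptor beads. Enzyme at 20 nM was preincubated 15 min with test compounds; peptide 500 nM and SAM 20 uM then reacted for 2 h.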
# On the % scale 0 is the no-effect control and ±100 the full control effect; potency means the concentration at half of the fitted maximal effect; tags describe the fitted curve by direction and shape.
Compound,Potency,"activity, negative = inhibition"
CCCN(CCC)CCNC(=S)Nc1ccc2nc3n(c(=O)c2c1)CCCCC3,"inconclusive: 79.4 µM [inhibitor, single point]",
N=c1cc(C2(O)CCCCC2)n2c(nc3ccccc32)s1,"inconclusive: 22.4 µM [inhibitor, single point]",
CCCn1c(=O)c2sccc2n2c(CCCC(=O)Nc3ccc(Oc4ccccc4)cc3)nnc12,inactive,
N#C/C(=N/Nc1ccc([N+](=O)[O-])cc1)C(=N)N1CCCCC1,"inconclusive: 35.5 µM [inhibitor, single point]",
Cn1c2ccccc2c2cc(/C=C(\NC(=O)c3ccccc3)C(=O)NCC(=O)O)ccc21,active: 50.1 µM,
COC(=O)C1=C(O)CSC1=Nc1ccc(C)cc1,"inconclusive: 1.41 µM [inhibitor, full curve]",
CNCCCCOc1ccccc1Cc1ccccc1,inactive,
Cc1ccc(NC(=O)COC(=O)[C@H](C)NC(N)=O)c(C)c1,inactive,
O=C(C1=C[C@@H](C2CCCCC2)C[C@@H](OCc2ccc(CO)cc2)O1)N1CCN(Cc2ccccc2)CC1,,inconclusive: -66.5% [inhibitor]
O=S(=O)(Nn1cnnc1)c1ccccc1Cl,"inconclusive: 20 µM [inhibitor, single point]",
O=C(N/C=N/OCc1cccc(C(F)(F)F)c1)N1OC[C@@H]2COc3ccc4ccccc4c3[C@@H]21,"inconclusive: 70.8 µM [inhibitor, partial curve, poor fit]",
COc1cc2c(=O)n(CCCN3CCOCC3)c(=S)[nH]c2c(OC)c1OC,active: 12.6 µM,
CCOc1ccc(CN2C(=O)c3ccccc3Sc3ccc(C(=O)OC)cc32)cc1,inactive,
Cc1c(C(=O)Nc2ccc(Cl)cc2)c2ccccn2c1CCc1ccncc1,active: 14.1 µM,
Nc1nnnn1/N=C/c1cc(Cl)cc(Cl)c1OCc1ccc(Cl)cc1Cl,"inconclusive: 89.1 µM [inhibitor, single point]",
CCN1CCCC1Cn1cnc2c([nH]c3cccc(Cl)c32)c1=O (stereo unspecified),active: 31.6 µM,
CCOC(=O)c1c(C)oc2c1c(C(c1ccncc1)N1CCOCC1)c(O)c1ccccc12 (stereo unspecified),"inconclusive: 3.55 µM [inhibitor, partial curve, poor fit]",
O=C(CCc1nc2ccccc2c(=O)[nH]1)Nc1cccc(S(=O)(=O)N2CCOCC2)c1,"inconclusive: 89.1 µM [inhibitor, partial curve, poor fit]",
O=C(c1ccc2c(c1)CCN2S(=O)(=O)c1ccc(Cl)cc1)N1CCN(c2ccccc2)CC1,"inconclusive: 11.2 µM [inhibitor, partial curve, poor fit]",
CC1CCCC(NC(=O)Nc2cccs2)C1C (stereo unspecified),"inconclusive: 6.31 µM [inhibitor, single point]",
COC(=O)Nc1cc(C(=O)c2ccc(Cl)cc2Cl)c[nH]1,active: 50.1 µM,
Cc1cc(C)nc(N/N=C/C=C/c2ccccc2)n1,active: 50.1 µM,
Cc1cc(C)cc(OCC(=O)Nc2cc(NC(=O)COc3cc(C)cc(C)c3)cc(C(=O)O)c2)c1,"inconclusive: 89.1 µM [inhibitor, single point]",
CC1(C)CC(=O)C(C(N)=NC(=O)c2ccc([N+](=O)[O-])cc2)=C(O)C1,"inconclusive: 89.1 µM [inhibitor, partial curve, poor fit]",

Compound,Potency,"activity, negative = inhibition"
Oc1ccc(Br)cc1CN1CCCCCCC1,"inconclusive: 1.58 µM [inhibitor, single point]",
Cc1ccc2occ(C(c3nnnn3Cc3ccccc3)N3CCOCC3)c(=O)c2c1 (stereo unspecified),"inconclusive: 70.8 µM [inhibitor, partial curve]",
c1ccc(N2CCOCCOCCOCCOCC2)cc1,"inconclusive: 39.8 µM [inhibitor, partial curve, poor fit]",
COC(=O)c1c(-c2ccc(OC)c(OC)c2)csc1N,,inconclusive: -85.9% [inhibitor]
Nc1nc(Nc2ccccc2F)sc1C(=O)c1ccccc1,,inactive: 10.5% [at 0.501 µM]
CCCCNC(=O)CSc1nc2cc3c(cc2c(=O)n1Cc1ccco1)OCO3,"inconclusive: 0.891 µM [inhibitor, full curve, poor fit]",
CN(Cc1ccc(Cl)cc1)C(=O)COC(=O)CSc1ccc([N+](=O)[O-])cc1,,inactive: 2.13% [at 12.7 µM]
C=CCOc1ccccc1CNc1ccc2[nH]c(=O)[nH]c2c1,active: 28.2 µM,
COC(=O)c1cc(C)sc1NC(=O)CSc1ncccn1,active: 10 µM,
COc1ccc(CN(C)Cc2cc(=O)n3ccsc3n2)c(OC)c1OC,"inconclusive: 89.1 µM [inhibitor, partial curve, poor fit]",
Cc1ccc(CN2CCC(C(=O)NCCC(C)C)CC2)o1,active: 31.6 µM,
COC(=O)C1=C(C)N=c2s/c(=C/c3ccoc3)c(=O)n2C1c1ccccc1 (stereo unspecified),"inconclusive: 22.4 µM [inhibitor, single point]",
CCOC(=O)c1[nH]c(C)c(CCC(=O)N2CCN(c3cccc(C)c3C)CC2)c1C,"inconclusive: 44.7 µM [inhibitor, partial curve, poor fit]",
CN1CCN(C(=O)CCN2C(=O)/C(=C\c3ccc(Cl)cc3)SC2=S)CC1,inactive,
CN1CCN(c2ccc(S(=O)(=O)N3CCCCC3)cc2NC(=O)c2ccc3ccccc3c2)CC1,"inconclusive: 39.8 µM [inhibitor, single point]",
CCOCCCNC(=O)c1cn(CC)c2ccc(S(=O)(=O)N3CCc4ccccc4C3)cc2c1=O,inactive,
Cc1cc(NS(=O)(=O)c2ccc(NC(=O)/C=C/c3ccc(Br)cc3)cc2)no1,"inconclusive: 79.4 µM [inhibitor, single point]",
COCCOC(=O)c1c(C)nc(SCC(=O)Nc2ccc(OC)cc2)c(C#N)c1-c1ccco1,active: 44.7 µM,
CCC(C)NC(=O)CSC1=Nc2ccccc2C2=NC(CC(=O)NCc3ccccc3)C(=O)N12 (stereo unspecified),"inconclusive: 31.6 µM [inhibitor, single point]",
COC(=O)c1ccc2c(c1)N(C)CCS2,"inconclusive: 39.8 µM [inhibitor, single point]",
COc1ccc(CNc2nc3ccccc3n2CCN2CCCCC2)c(OC)c1,"inconclusive: 70.8 µM [inhibitor, partial curve, poor fit]",
CCOC(=O)N1CCN(S(=O)(=O)c2ccc(C(=O)N(CCN(C)C)c3nc4ccc(CC)cc4s3)cc2)CC1,active: 50.1 µM,
CCOCCCNC(=O)c1ccc(N2CCCC2)c(NS(=O)(=O)c2ccc(C)cc2)c1,"inconclusive: 79.4 µM [inhibitor, single point]",
CCc1nnc(N/N=C/c2c(F)cccc2Cl)n1N,active: 44.7 µM,

Compound,Potency,"activity, negative = inhibition"
Cc1ccn2c(NC3CCCC3)c(-c3ccsc3)nc2c1,"inconclusive: 39.8 µM [inhibitor, partial curve, poor fit]",
CC1CCCCN1C(=O)CSc1nnc(-c2ccco2)n1CC1CCCO1 (stereo unspecified),active: 14.1 µM,
Cc1cc(C(=O)CN2CCN(CC(=O)Nc3ccc(F)cc3)CC2)c(C)n1C1CC1,,inactive: -2.95% [at 2.33 µM]
O=C(Nc1ccc2nc3ccccc3nc2c1)c1ccccc1,"inconclusive: 79.4 µM [inhibitor, single point]",
O=S(=O)(Cc1ccccc1)N1CCN(Cc2c(F)cccc2Cl)CC1,active: 35.5 µM,
COc1ccc(C2CC(=O)Oc3cc(O)cc(O)c32)cc1 (stereo unspecified),,inactive: 26.8% [at 12.7 µM]
O=S(=O)(O)c1cccc2c(N=Nc3ccc(O)c4ncccc34)cccc12,active: 10 µM,
CN(C1CCS(=O)(=O)C1)S(=O)C12CC3CC(CC(C3)C1)C2 (stereo unspecified),active: 11.2 µM,
S=c1[nH]nc(-c2ccco2)n1/N=C/c1ccccn1,inactive,
COc1cc(/C=C2\SC(=S)N(C(C(=O)O)c3ccccc3)C2=O)ccc1O (stereo unspecified),active: 8.91 µM,
N#CC1=C(N)N2C(=C(C#N)C13CCCCC3)SC1CCCCC12O (stereo unspecified),"inconclusive: 22.4 µM [inhibitor, single point]",
O=C1ON=C(c2ccccc2)/C1=C/c1ccc(-c2ccccc2[N+](=O)[O-])o1,active: 7.08 µM,
Cc1ccc(CSc2nc(-c3ccc(C(C)(C)C)cc3)nc3cc(=O)[nH]n23)cc1,inactive,
CCc1ccc(Nc2sc(C(=O)c3ccccc3)c(N)c2S(C)(=O)=O)cc1,inactive,
C=Cc1ccc(Cn2c(C(=O)O)c(CNCc3ccccc3)c3ccc(OC)cc32)cc1,"inconclusive: 28.2 µM [inhibitor, partial curve, poor fit]",
CCCCN(C(=O)COC(=O)c1ccc(C=O)cc1)c1c(N)n(CCC)c(=O)[nH]c1=O,,inactive: 24% [at 12.7 µM]
CC1(C)Cc2c(sc(NC(=O)C(=O)N3CCCC3)c2C(N)=O)CO1,active: 50.1 µM,
Cc1ccc(F)cc1NC(=O)CCSc1nc(-c2ccco2)cc(C(F)(F)F)n1,inactive,
C/C(=N\Nc1ccc([N+](=O)[O-])cc1)c1ccc(O)cc1,"inconclusive: 50.1 µM [inhibitor, partial curve, poor fit]",
O=C(NC(=S)Nc1c(F)cc(F)cc1Br)c1ccc2c(c1)OCCO2,"inconclusive: 50.1 µM [inhibitor, partial curve, poor fit]",
COc1ccc(-c2cn3c(n2)sc2cc(C(=O)Nc4ccc(F)cc4Cl)ccc23)cc1,inactive,
COc1ccc(-n2ccn(CC(=O)Nc3ccc(C)c(C)c3)c(=O)c2=O)cc1OC,inactive,
CC(C)CN(Cc1cc2ccccc2[nH]c1=O)C(=O)c1cccnc1,"inconclusive: 50.1 µM [inhibitor, partial curve, poor fit]",
